These are yes or no findings as the source states them, for the method shown. Some entries that bind do so weakly or less than the wild type.
T1: N-terminal half of SRFR1 (a.a 1-567), TPR domain, two-hybrid bait (Arabidopsis) (UniProt F4JS25)
T1 sequence: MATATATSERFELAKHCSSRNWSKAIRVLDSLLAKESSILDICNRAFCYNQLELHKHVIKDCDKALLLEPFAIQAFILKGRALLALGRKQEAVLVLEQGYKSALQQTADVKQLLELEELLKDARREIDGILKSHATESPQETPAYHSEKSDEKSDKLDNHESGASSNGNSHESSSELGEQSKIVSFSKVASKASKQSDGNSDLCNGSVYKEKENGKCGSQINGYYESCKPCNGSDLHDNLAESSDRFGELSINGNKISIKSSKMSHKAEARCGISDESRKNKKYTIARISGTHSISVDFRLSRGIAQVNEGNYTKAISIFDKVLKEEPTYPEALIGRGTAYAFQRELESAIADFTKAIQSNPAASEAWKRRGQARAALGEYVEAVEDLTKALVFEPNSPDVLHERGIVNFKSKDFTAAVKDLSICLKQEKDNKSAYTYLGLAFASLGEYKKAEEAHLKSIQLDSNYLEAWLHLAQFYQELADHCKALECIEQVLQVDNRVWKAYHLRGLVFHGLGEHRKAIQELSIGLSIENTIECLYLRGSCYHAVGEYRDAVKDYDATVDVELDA

T2: SRFR1 (SUPPRESSOR OF rps4-RLD), full-length, two-hybrid bait (Arabidopsis) (UniProt F4JS25)
T2 sequence: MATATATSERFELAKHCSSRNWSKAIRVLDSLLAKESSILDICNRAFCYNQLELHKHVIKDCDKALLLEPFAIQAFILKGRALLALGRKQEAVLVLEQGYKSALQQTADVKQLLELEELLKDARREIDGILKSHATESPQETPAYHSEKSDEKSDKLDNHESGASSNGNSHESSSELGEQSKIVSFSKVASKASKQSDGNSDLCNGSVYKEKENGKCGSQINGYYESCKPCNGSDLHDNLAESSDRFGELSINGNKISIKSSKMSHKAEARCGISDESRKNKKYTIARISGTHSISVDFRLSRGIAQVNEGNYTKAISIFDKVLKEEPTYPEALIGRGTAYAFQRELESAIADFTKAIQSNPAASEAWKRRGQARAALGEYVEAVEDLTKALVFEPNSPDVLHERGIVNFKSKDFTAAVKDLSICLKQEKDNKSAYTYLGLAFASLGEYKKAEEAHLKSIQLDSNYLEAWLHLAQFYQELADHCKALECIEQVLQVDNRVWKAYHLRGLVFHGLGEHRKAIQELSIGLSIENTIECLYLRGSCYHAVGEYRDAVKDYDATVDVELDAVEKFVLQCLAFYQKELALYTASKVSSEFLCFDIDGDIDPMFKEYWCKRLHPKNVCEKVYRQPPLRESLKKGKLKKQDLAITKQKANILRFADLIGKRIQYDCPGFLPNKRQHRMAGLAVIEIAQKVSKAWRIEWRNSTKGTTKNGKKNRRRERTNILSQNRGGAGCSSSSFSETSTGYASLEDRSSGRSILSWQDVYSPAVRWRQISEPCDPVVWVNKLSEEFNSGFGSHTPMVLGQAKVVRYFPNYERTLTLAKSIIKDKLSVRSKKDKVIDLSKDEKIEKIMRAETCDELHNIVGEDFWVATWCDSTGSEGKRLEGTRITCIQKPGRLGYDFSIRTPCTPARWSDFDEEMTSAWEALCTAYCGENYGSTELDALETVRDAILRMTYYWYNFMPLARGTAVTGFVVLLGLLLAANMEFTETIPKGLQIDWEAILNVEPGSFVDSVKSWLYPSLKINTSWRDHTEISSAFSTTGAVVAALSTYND

T3: C-terminal half of SRFR1 (a.a. 568-1052), two-hybrid bait (Arabidopsis) (UniProt F4JS25)
T3 sequence: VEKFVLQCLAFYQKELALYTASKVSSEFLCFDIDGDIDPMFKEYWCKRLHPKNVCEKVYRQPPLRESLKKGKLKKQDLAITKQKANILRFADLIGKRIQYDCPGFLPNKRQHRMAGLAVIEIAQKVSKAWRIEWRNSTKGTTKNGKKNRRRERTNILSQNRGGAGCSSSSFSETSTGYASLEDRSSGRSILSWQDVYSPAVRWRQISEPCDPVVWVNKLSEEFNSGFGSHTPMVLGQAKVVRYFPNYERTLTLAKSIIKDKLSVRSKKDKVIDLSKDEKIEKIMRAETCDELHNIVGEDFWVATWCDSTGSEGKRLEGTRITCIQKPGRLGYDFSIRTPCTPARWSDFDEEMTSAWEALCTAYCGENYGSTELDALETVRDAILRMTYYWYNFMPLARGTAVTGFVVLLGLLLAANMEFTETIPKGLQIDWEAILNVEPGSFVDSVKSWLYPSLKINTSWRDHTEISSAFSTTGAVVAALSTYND

B1: SGT1b_(1-120), two-hybrid prey (domain or fragment, UniProt Q9SUT5 1-120)
chain: MAKELAEKAKEAFLDDDFDVAVDLYSKAIDLDPNCAAFFADRAQANIKIDNFTEAVVDANKAIELEPTLAKAYLRKGTACMKLEEYSTAKAALEKGASVAPNEPKFKKMIDECDLRIAEE
B2: SGT1b (library cDNA clone encoding amino acid 6-358), two-hybrid prey (protein, UniProt Q9SUT5 6-358)
chain: AEKAKEAFLDDDFDVAVDLYSKAIDLDPNCAAFFADRAQANIKIDNFTEAVVDANKAIELEPTLAKAYLRKGTACMKLEEYSTAKAALEKGASVAPNEPKFKKMIDECDLRIAEEEKDLVQPMPPSLPSSSTTPLATEADAPPVPIPAAPAKPMFRHEFYQKPEEAVVTIFAKKVPKENVTVEFGEQILSVVIDVAGEEAYHLQPRLFGKIIPEKCRFEVLSTKVEIRLAKAEIITWASLEYGKGQSVLPKPNVSSALSQRPVYPSSKPAKDWDKLEAEVKKQEKDEKLDGDAAMNKFFSDIYSSADEDMRRAMNKSFAESNGTVLSTNWKEVGTKKVESTPPDGMELKKWEY
B3: SGT1a_(121-351), two-hybrid prey (domain or fragment, UniProt Q9SUR9 121-350)
chain: EKDLVQPVPSTLPSSVTAPPVSELDVTPTAKYRHEYYQKPEEVVVTVFAKGIPKQNVNIDFGEQILSVVIEVPGEDAYYLQPRLFGKIIPDKCKYEVLSTKIEICLAKADIITWASLEHGKGPAVLPKPNVSSEVSQRPAYPSSKKVKDWDKLEAEVKKQEKDEKLEGDAALNKFFREIYQNADEDMRRAMSKSFVESNGTVLSTNWQEVGTKTIESTPPDGMELKKWEI
B4: SGT1b_(121-358), two-hybrid prey (domain or fragment, UniProt Q9SUT5 121-358)
chain: EKDLVQPMPPSLPSSSTTPLATEADAPPVPIPAAPAKPMFRHEFYQKPEEAVVTIFAKKVPKENVTVEFGEQILSVVIDVAGEEAYHLQPRLFGKIIPEKCRFEVLSTKVEIRLAKAEIITWASLEYGKGQSVLPKPNVSSALSQRPVYPSSKPAKDWDKLEAEVKKQEKDEKLDGDAAMNKFFSDIYSSADEDMRRAMNKSFAESNGTVLSTNWKEVGTKKVESTPPDGMELKKWEY
B5: N-terminal half of SRFR1 (a.a 1-567), TPR domain, two-hybrid bait (domain or fragment, UniProt F4JS25-1 1-567)
chain: MATATATSERFELAKHCSSRNWSKAIRVLDSLLAKESSILDICNRAFCYNQLELHKHVIKDCDKALLLEPFAIQAFILKGRALLALGRKQEAVLVLEQGYKSALQQTADVKQLLELEELLKDARREIDGILKSHATESPQETPAYHSEKSDEKSDKLDNHESGASSNGNSHESSSELGEQSKIVSFSKVASKASKQSDGNSDLCNGSVYKEKENGKCGSQINGYYESCKPCNGSDLHDNLAESSDRFGELSINGNKISIKSSKMSHKAEARCGISDESRKNKKYTIARISGTHSISVDFRLSRGIAQVNEGNYTKAISIFDKVLKEEPTYPEALIGRGTAYAFQRELESAIADFTKAIQSNPAASEAWKRRGQARAALGEYVEAVEDLTKALVFEPNSPDVLHERGIVNFKSKDFTAAVKDLSICLKQEKDNKSAYTYLGLAFASLGEYKKAEEAHLKSIQLDSNYLEAWLHLAQFYQELADHCKALECIEQVLQVDNRVWKAYHLRGLVFHGLGEHRKAIQELSIGLSIENTIECLYLRGSCYHAVGEYRDAVKDYDATVDVELDA

Key:
[1] = biological target: T1, N-terminal half of SRFR1 (a.a 1-567), TPR domain, two-hybrid bait (Arabidopsis); assay: two-hybrid; β-Gal assays in yeast (data not shown)
[2] = biological target: T1, N-terminal half of SRFR1 (a.a 1-567), TPR domain, two-hybrid bait (Arabidopsis); assay: two-hybrid; yeast growth assay: SRFR1 constructs in pGBKT7 (bait) and SGT1 constructs in pGADT7 (prey) co-transformed into strain Y1348; diluted cultures plated on SD-Leu-Trp and SD-Leu-Trp-His
[3] = biological target: T2, SRFR1 (SUPPRESSOR OF rps4-RLD), full-length, two-hybrid bait (Arabidopsis); assay: two-hybrid; β-Gal assays in yeast (data not shown)
[4] = biological target: T2, SRFR1 (SUPPRESSOR OF rps4-RLD), full-length, two-hybrid bait (Arabidopsis); assay: two-hybrid; library screen: full-length SRFR1 in pGBKT7 as bait, Arabidopsis prey library in pGADT7, yeast strain Y1348, selection on SD-Leu-Trp-His with 3 mM 3AT (data not shown)
[5] = biological target: T2, SRFR1 (SUPPRESSOR OF rps4-RLD), full-length, two-hybrid bait (Arabidopsis); assay: two-hybrid; yeast growth assay: SRFR1 constructs in pGBKT7 (bait) and SGT1 constructs in pGADT7 (prey) co-transformed into strain Y1348; diluted cultures plated on SD-Leu-Trp and SD-Leu-Trp-His
[6] = biological target: T3, C-terminal half of SRFR1 (a.a. 568-1052), two-hybrid bait (Arabidopsis); assay: as above

Binder	binding [1]	binding [2]	binding [3]	binding [4]	binding [5]	binding [6]
B1	binds	binds				
B2	binds	binds	binds	binds	binds	no binding
B3		no binding				
B4		no binding				
B5		no binding				
